The text below walks through data of ChEMBL document CHEMBL4888484, “Replenishing the malaria drug discovery pipeline: Screening and hit evaluation of the MMV Hit Generation Library 1 (HGL1) against asexual blood stage Plasmodium falciparum ,using a nano luciferase reporter read-out” (2022).

By % Inhibition is commonly meant the drop in the measured response relative to a control, in per cent.

The whole screen tested about 150,000 compounds, of which about 540 (0.36%) showed an effect of 50% or more. The list shows a part of the results.

The test system of this experiment is Plasmodium falciparum. The experiment is described as follows: Primary screen in NF54 nanoGlo assay, in single point, at 2uM, 72h; a lower Z score goes with more inhibition. The format is functional, Erythrocyte. The following applies: timepoint 72 hour.
Take `COC(=O)CCN1C[C@H](OCc2cccc(OC)c2)CN(C(=O)c2ccc(C)c(C)c2)CC1=O`: the “% Inhibition” value is on record as -8% and the Z score is 1.04.
On the same counts, the results for `CC(NC1CCOC(C2CC2)C1)[C@H]1CCCN1C(=O)OC(C)(C)C` (stereo not given in full) are -16% and 1.78.
Consider `COc1c(C)cc(-c2ccc3nc(-c4ccccc4O)oc3c2)cc1C`, for which the “% Inhibition” value is on record as -6% and the Z score is 0.83.
With `COc1ccc(-n2nc3nc(N4CCN(C(C)C)CC4)nc(-c4ccccc4)c3c2N)cc1`, the “% Inhibition” value is listed as -7% and the Z score was found to be 1.11.
For the compound `NC1CCCCCC1C(=O)N(CC1CC1)CC1CC1` (stereo not given), the “% Inhibition” value was -13% and the Z score is recorded as 1.29.
On the same counts, the results for `CCN(C)c1nc(N2CCN(c3ccccc3)CC2)nc2c1CN(C(=O)c1ccccc1Cl)CC2` are 1% and -0.24.
Turning to `O=C(c1cc(F)cc(Cl)c1)N1CCN(CCO)[C@@H]2CS(=O)(=O)C[C@@H]21`, the “% Inhibition” value is given as -6% and the Z score came to 0.8.
Take `COCc1nc([C@H]2CCOC2)cc(N(C)Cc2[nH]c3ccccc3c2C)n1`: the “% Inhibition” value turned out to be 5% and the Z score is recorded as -0.76.
In the same order, the values of `O=C(c1cnc(-c2ccccn2)nc1O)N1CCC(C(=O)N2CCCC2)CC1` are -7% and 1.38.
Take `COc1ccc(-c2nc(C3CCC3)n[nH]2)cc1F`: the “% Inhibition” value is recorded as -7% and the Z score was 1.36.
On to `O=S(=O)(Cc1ccon1)N1CCC[C@H](n2cnc3ccccc32)C1`, for which the “% Inhibition” value was -13% and the Z score was determined as 2.06.
Regarding `CN(CCCNc1ccccc1)C(=O)NCc1cccnc1`, the “% Inhibition” value is -2% and the Z score is on record as 0.21.
As for `Cc1c(C(=O)N2C[C@@H]3CC[C@H]2CN(Cc2cscn2)C3)cnc2ccnn12`, the “% Inhibition” value is recorded as -18% and the Z score is listed as 2.27.
Consider `C[C@H]1CN(Cc2ccccc2OCCN2CCOCC2)CC[C@]1(O)C1CC1`, for which the “% Inhibition” value is recorded as -13% and the Z score is recorded as 2.01.
Turning to `CNC(=O)Cn1ccn(-c2cccc(Cl)c2)c1=O`, the “% Inhibition” value was -9% and the Z score was 1.61.
On the same counts, the results for `Cc1ccc(CNc2ncccc2C#N)c(O[C@H]2CCOC2)c1` are -9% and 0.95.
Regarding `COc1ccc(Cl)cc1NC(=O)CN1CCC[C@H]1c1ccncc1`, the “% Inhibition” value is -8% and the Z score is on record as 1.17.
For `Oc1nc(N2CCOC3(CCCC3)C2)ncc1F`, the “% Inhibition” value amounted to 55% and the Z score was -9.19.
For `COc1ccc(CNC(=O)N2CCCC(C3CCCCN3)C2)cc1OC(F)F` (stereo not given), the “% Inhibition” value was 3% and the Z score is on record as -0.31.
In the case of `O=C(Cn1c(=O)n(Cc2ccco2)c(=O)c2ccccc21)Nc1ccc(F)cc1F`, the “% Inhibition” value was -5% and the Z score worked out at 0.77.
For `COc1ccc(N2CCCN(Cc3cccc(Cl)c3)C2=O)c(NC(=O)c2cccc(C)c2)c1`, the “% Inhibition” value is reported as -3% and the Z score is given as 0.51.
On the same counts, the results for `O=C(Nc1c(F)c(F)c(F)c(F)c1F)[C@H]1C[C@H]2CCCN2[C@@]12C(=O)Nc1ccccc12` are -11% and 1.1.
As to `COc1ccc(Cc2n[nH]c(CC[C@H](C)N3CCOCC3)n2)cc1`, the “% Inhibition” value is listed as -10% and the Z score was determined as 1.14.
For `O=C(O)[C@H]1CCCN1Cc1nn(-c2ccc(F)cc2)c2c1CCC2`, the “% Inhibition” value was -1% and the Z score was found to be 0.16.
As to `Cc1ccc(Cl)c(OCCNCCO)c1`, the “% Inhibition” value was -5% and the Z score stood at 0.62.
On the same counts, the results for `Cc1ccc(-c2cc3c(N4CCC[C@H](C(=O)NCc5cc(F)cc(F)c5)C4)nccn3n2)c(C)c1` are -4% and 0.53.
Turning to `CN(CCNc1cnc(C#N)cn1)c1cnc(C#N)cn1`, the “% Inhibition” value amounted to 3% and the Z score is recorded as -0.27.
With `CC1(C)C[C@@H](c2nccn2Cc2cccc(C(=O)O)c2)CCO1`, the “% Inhibition” value is 16% and the Z score is -2.22.
Regarding `COc1ccc(-c2nc3ccc(C(=O)NCCc4ccccc4)cc3nc2-c2ccc(OC)cc2)cc1`, the “% Inhibition” value is -6% and the Z score is recorded as 1.15.
Turning to `CN(C)c1ccc(-c2noc(CCNC(=O)c3ccccc3Cl)n2)cc1`, the “% Inhibition” value is reported as -4% and the Z score was found to be 0.54.
`COCCCNC(=O)C1CN(S(=O)(=O)c2ccc(Cl)cc2)CC1c1cccc(C(F)(F)F)c1` (stereo not given): the “% Inhibition” value is -1% and the Z score is 0.12.
Regarding `CCCS(=O)(=O)N1CC(Oc2ccc(C)cc2)C1`, the “% Inhibition” value is reported as -9% and the Z score was 1.24.
On to `Cc1ncsc1NC(=O)C1OCC(=O)N(C)C1c1ccccc1` (stereo not given), for which the “% Inhibition” value was -8% and the Z score came to 1.16.
On the same counts, the results for `COc1ccc(N2C(=O)[C@H](CC(=O)NCc3cc(Cl)cc4c3OCOC4)N=C2O)cc1` are 1% and -0.15.
Consider `O=C(c1ccccc1-n1cnnn1)N1CCC[C@H](N2CCCCC2)C1`, for which the “% Inhibition” value is listed as 5% and the Z score is -0.96.
On the same counts, the results for `CC(C)NC(=O)c1ccnc(N2CC[C@@]3(O)CCN(C(=O)N(C)C)C[C@H]3C2)c1` are -8% and 1.5.
Take `O=C(c1ccc2c(c1)C(=O)N(c1ccccc1-c1ccccc1)C2=O)c1ccc2c(c1)C(=O)N(c1ccccc1-c1ccccc1)C2=O`: the “% Inhibition” value is listed as -8% and the Z score amounted to 1.58.
Turning to `CCN1CCOC[C@H]1C(=O)NCC1(Cc2ccccc2)CCC1`, the “% Inhibition” value is on record as -4% and the Z score came to 0.51.
Regarding `O=C(CN(C[C@H]1CCCO1)C(=O)c1ccoc1)N1CCCC1`, the “% Inhibition” value is reported as 1% and the Z score is -0.06.
As to `N[C@H]1CCc2nc(-c3ccccc3)cn2C1`, the “% Inhibition” value is recorded as -13% and the Z score was determined as 1.65.
With `CCc1nnc2n1CCN(Cc1ccc(-n3cccn3)cc1)C2`, the “% Inhibition” value is recorded as -6% and the Z score is 0.96.
Turning to `Cn1c(=O)c2c(ncn2CC(=O)N2CCC[C@H]2c2ccc3c(c2)OCCCO3)n(C)c1=O`, the “% Inhibition” value was -6% and the Z score came to 0.79.
In the case of `Cn1c(=O)[nH]cc(CC(=O)N2CCC[C@H](Nc3ccc(F)c(F)c3)C2)c1=O`, the “% Inhibition” value was -5% and the Z score was found to be 0.6.
Consider `O=C1C[C@@H]2O[C@H](CN(Cc3ccc(F)c(F)c3)C[C@@H]3CN(CCO3)C(=O)[C@@H]3C[C@@H](CN3CC3CC3)N1)[C@@H](O)[C@H]2O`, for which the “% Inhibition” value is listed as 27% and the Z score is on record as -3.01.
In the same order, the values of `C[C@@H](C1CCN(c2cc(N(C)C)ncn2)CC1)N1CCCC1` are 7% and -1.08.
Regarding `Cc1cc(C)c(NS(=O)(=O)c2cc(-c3ccc(=O)[nH]n3)ccc2C)c(C)c1`, the “% Inhibition” value is given as -1% and the Z score amounted to 0.24.
For the compound `c1ccc(-c2csc(C3CCC3)n2)nc1`, the “% Inhibition” value is on record as -3% and the Z score amounted to 0.35.
In the case of `O=C(c1ccc(Br)cc1)N1CCC(c2ccn3ncc(C(=O)N4CCCC4)c3c2)CC1`, the “% Inhibition” value is given as -3% and the Z score was found to be 0.31.
In the same order, the values of `O=C(Nc1ccc2cc[nH]c2c1)c1cc(=O)[nH]c2ccccc12` are 1% and -0.13.
In the same order, the values of `COc1ccc(C(=O)NC[C@@H](c2ccc(C)cc2)N2CCCCC2)cc1Cl` are -17% and 3.35.
